About 64,000 (15%) of roughly 420,000 compounds were called active. Inconclusive means that the source gave no clear call. Such entries were picked first, then a sample of the others. Calls come from the whole dose curve; as a rule, active = well fitted inhibition curve with a large enough effect; inconclusive = small, poorly fitted or top-dose-only effect; inactive = flat fitted curve, though single readings scatter. No potency is given beside an inconclusive call; the fits are too rough.
experiment: qHTS for Inhibitors of human tyrosyl-DNA phosphodiesterase 1 (TDP1): qHTS in cells in absence of CPT; conditions: DT40 Tdp1-/- hTDP1 cells, no CPT, ATP luminescence, 48 h; activity change, negative = growth inhibition: at 46.2 µM (top of the series) unless noted; note: nearly all actives have a fitted effect of over 55% in size
In short: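 Chicken DT40 Tdp1-/- cells complemented with human TDP1, screened without camptothecin (DMSO vehicle only), 400 cells/well. Compounds pin-transferred, cells incubated at 37 °C for at least 48 hr. Growth read as ATP-dependent luminescence (CellTiter-Glo, 30 min at RT).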
% is set by controls: 0 for no effect and ±100 for the full control effect; potency is the fitted concentration of half-maximal effect; tags give direction and shape of the fitted curve.

Which “activity change, negative = growth inhibition” value does the source give for `Nc1nnc(SCc2cccnc2)s1` here?
Its value is inactive: -3.8%.

Which Potency does the source give for `COc1ccc(NC2c3ccccc3C(=O)N2c2cccnc2)cc1Cl` (configuration not stated) here?
The Potency was inconclusive [inhibitor, single point].

Which Potency does the source give for `Cc1cccc2sc(N3CCN(C(=O)c4ccco4)CC3)nc12` here?
Its Potency is inconclusive [inhibitor, single point].

Which Potency does the source give for `CC1(C)Cc2c(cnn2-c2ccc(F)cc2)C(NC(=O)C2=CC(=O)CC(C)(C)O2)C1` (configuration not stated) here?
Its Potency is inconclusive [inhibitor, single point].

Which Potency does the source give for `FC(F)(F)c1cc(CO[C@H]2CCCN[C@H]2c2ccccc2)cc(C(F)(F)F)c1` here?
Its Potency is active: 13.3 µM.

With `O=c1c(-c2ccc(F)c(F)c2)nc2cncnc2n1Cc1ccccc1Cl` as the molecule, how does the Potency read?
The Potency was inconclusive [inhibitor, single point].

With `COc1ccccc1NC(=O)Cc1csc(NC(=S)Nc2ccc(C)cc2)n1` as the molecule, how does the Potency read?
The Potency was inconclusive [inhibitor, single point].

For `CCc1ccc(OCCSc2nc3ccccc3n2CC(=O)O)cc1`, which “activity change, negative = growth inhibition” value is on record?
The value was inactive: 5.53%.

For `O=C(CSc1nnnn1-c1ccc(O)cc1)Nc1cccc(S(=O)(=O)N2CCCC2)c1`, which Potency is on record?
Its Potency is inconclusive [inhibitor, partial curve].

Which Potency does the source give for `Cc1cc(NC(=O)C2CCCN(S(=O)(=O)c3cccc4nonc34)C2)ccc1Br` (configuration not stated) here?
The Potency was active: 16.4 µM.

With `COc1ccc(S(=O)(=O)N2CCc3ccccc32)cc1[N+](=O)[O-]` as the molecule, how does the Potency read?
The Potency was inconclusive [inhibitor, partial curve].

Which “activity change, negative = growth inhibition” value does the source give for `COCCNC(=O)C1(C)CCN(C(=O)c2cccnc2Oc2ccccc2)C1` (configuration not stated) here?
Its value is inactive: 0.0211%.

For `CCCC(NC(=O)c1ccc(Br)o1)c1nc2ccccc2[nH]1` (configuration not stated), which Potency is on record?
Its Potency is inconclusive [inhibitor, single point].

With `COc1ccc(OCC(=O)N(C)CC2COc3ccccc3O2)cc1` (configuration not stated) as the molecule, how does the Potency read?
The Potency was inconclusive [inhibitor, single point].

For `CCN(Cc1ccccc1)S(=O)(=O)c1ccc(C(=O)Nc2nnc(C)o2)cc1`, which Potency is on record?
The Potency was inconclusive [inhibitor, single point].

For `CCc1ccc(N(C(=O)c2snc(C(N)=O)c2N)C(C(=O)NC2CCCC2)c2ccncc2)cc1` (configuration not stated), which Potency is on record?
The Potency was inconclusive [inhibitor, single point].

With `COc1cccc(C2C(=O)N(C3CCCCC3)CC(=O)N2Cc2ccc(F)cc2)c1` (configuration not stated) as the molecule, how does the Potency read?
Its Potency is inconclusive [inhibitor, single point].

For `Cc1ccc(Nc2nc3ccccc3c(=O)[nH]2)cc1C`, which Potency is on record?
The Potency was inconclusive [inhibitor, single point].

Which Potency does the source give for `CCC(C)NCCCOc1ccc([N+](=O)[O-])cc1` (configuration not stated) here?
Its Potency is inconclusive [inhibitor, full curve].

With `O=C1Nc2ccccc2Oc2cc(Oc3ccc(Cl)cc3)ccc21` as the molecule, how does the Potency read?
The Potency was inconclusive [inhibitor, single point].

Which “activity change, negative = growth inhibition” value does the source give for `CCc1nc(N)c(C#N)c(-c2ccc(F)cc2)c1C` here?
Its value is inactive: -0.171%.

For `O=C(CN1N=C(c2ccc(Cl)cc2)CCC1=O)NCc1ccc(F)cc1`, which Potency is on record?
The Potency was inconclusive [inhibitor, single point].

For `CCOc1ccc(S(=O)(=O)Nc2cccc(C(=O)NCC(C)(C)N3CCOCC3)c2)cc1`, which Potency is on record?
The Potency was inconclusive [inhibitor, single point].

With `CC(NC(=O)c1cc(S(=O)(=O)N(C)C)ccc1Cl)c1ccc(-n2ccnc2)cc1` (configuration not stated) as the molecule, how does the “activity change, negative = growth inhibition” value read?
Its value is inactive: 13.3%.

Which Potency does the source give for `COCCCNC(=O)CCc1nnc(Cc2ccc(-c3ccccc3)cc2)o1` here?
The Potency was inconclusive [inhibitor, partial curve].

With `O=C(c1c[nH]c2ccccc12)C(F)(F)F` as the molecule, how does the Potency read?
The Potency was inconclusive [inhibitor, partial curve, poor fit].

For `Cc1ccc(NCCC(=O)c2ccc(Br)cc2)cc1`, which Potency is on record?
The Potency was inconclusive [inhibitor, single point].

For `C/C(=N/NC(=O)CCC(=O)Nc1ccc(Br)cc1)c1ccc(Br)cc1`, which Potency is on record?
The Potency was inconclusive [inhibitor, single point].

With `O=C(NCc1cccs1)c1ccccc1F` as the molecule, how does the “activity change, negative = growth inhibition” value read?
The value was inactive: -22.2%.

For `COc1ccc(OC)c(CNCc2c(C(=O)O)n(Cc3ccccc3)c3cc(OC)ccc23)c1`, which Potency is on record?
The Potency was inconclusive [inhibitor, partial curve].

With `COc1cccc(NC(=O)CSc2nc3c(c(=O)n2C)SC(C)C3)c1` (configuration not stated) as the molecule, how does the Potency read?
Its Potency is inconclusive [inhibitor, single point].

For `COc1cc(C(=O)N(C)C2CCCCC2)cc(OC)c1OC`, which Potency is on record?
Its Potency is inconclusive [inhibitor, partial curve, poor fit].

Which Potency does the source give for `C=CCn1c(Cn2c(-c3cnccn3)nc3ccccc32)nc2ccccc21` here?
Its Potency is inconclusive [inhibitor, partial curve].

For `CSc1ccc(OC2(C)CCN(Cc3ccc(OC(F)(F)F)cc3)C2)cc1` (configuration not stated), which Potency is on record?
The Potency was inconclusive [inhibitor, single point].

Which Potency does the source give for `CC(=O)Nc1ccc(S(=O)(=O)N(Cc2ccccc2)c2ccccc2F)cc1` here?
Its Potency is inconclusive [inhibitor, partial curve, poor fit].

Which “activity change, negative = growth inhibition” value does the source give for `CN1CCN(CCNC(=O)Cn2c(=O)c3cccn3c3ccc(F)cc32)CC1` here?
Its value is inactive: -10.5%.

Which “activity change, negative = growth inhibition” value does the source give for `Nc1ccnc(=O)[nH]1` here?
The value was inactive: 6.39%.

Which “activity change, negative = growth inhibition” value does the source give for `CCN1CCCC1CNC(=O)c1cnn(-c2nccc(-c3ccccc3F)n2)c1C` (configuration not stated) here?
Its value is inactive: -18.5%.

For `Cc1cc(C)cc(NC(=S)N2CCC(N(C)CC3CCCO3)CC2)c1` (configuration not stated), which “activity change, negative = growth inhibition” value is on record?
Its value is inactive: -0.182%.

For `Cc1cccc(N2CCN(C(=O)CSc3nc4ccccc4nc3N3CC(C)OC(C)C3)CC2)c1C` (configuration not stated), which Potency is on record?
The Potency was active: 4.11 µM.

Which Potency does the source give for `c1cncc(-c2nc3cc4ccccc4cc3[nH]2)c1` here?
Its Potency is inconclusive [inhibitor, single point].

For `CCOc1ccc2[nH]c(=O)c(CN(CCc3ccccc3)C(=O)c3cnccn3)cc2c1`, which Potency is on record?
Its Potency is active: 16.4 µM.

With `COc1cc(C#Cc2c(-c3cncn3C)n(C)c3ccc(-c4ccc(OC)nc4)cc23)cc(OC)c1` as the molecule, how does the Potency read?
The Potency was inconclusive [inhibitor, single point].

For `Cc1cc(-c2n[nH]c(=S)n2/N=C/c2ccccc2[N+](=O)[O-])n[nH]1`, which “activity change, negative = growth inhibition” value is on record?
Its value is inactive: -0.739%.

With `CCC(=O)c1cc(F)c(N2CCN(C(=O)Cc3ccccc3)CC2)cc1C` as the molecule, how does the Potency read?
Its Potency is active: 14.6 µM.

Which Potency does the source give for `C=C1C2CC[C@@]3(C)C(c4ccoc4)OC(=O)C[C@@]13OC1CC(=O)C(C)(C)C(C(O)C(=O)OC)[C@]12C` (some centres not stated) here?
Its Potency is inconclusive [inhibitor, single point].

Which Potency does the source give for `CC(=O)Nc1ccc(CN2CCCC(C(=O)c3cccc(C(F)(F)F)c3)C2)cc1` (configuration not stated) here?
Its Potency is inconclusive [inhibitor, single point].

For `Nc1ccn(Cc2ccc(F)cc2)n1`, which “activity change, negative = growth inhibition” value is on record?
Its value is inactive: 3.73%.

With `C1CC(=NN=C2CCSCC2)CCS1` as the molecule, how does the “activity change, negative = growth inhibition” value read?
The value was inactive: -15%.

Which Potency does the source give for `CCOc1ccccc1CNC(=O)CCCN1C(=O)CCn2nc(-c3cccn3C)cc21` here?
Its Potency is inconclusive [inhibitor, single point].

Which Potency does the source give for `CCn1c2ccccc2c2cc(NC(=O)COC(=O)C3CCC(=O)N3)ccc21` (configuration not stated) here?
The Potency was inconclusive [inhibitor, single point].

Which Potency does the source give for `CCCCC(=O)Nc1nc2c(s1)COc1ccccc1-2` here?
Its Potency is inconclusive [inhibitor, single point].

Which Potency does the source give for `Cc1cc2c(cc1C)N(C(=O)CCl)CC(=O)N2` here?
Its Potency is active: 2.59 µM.

For `CCCCCCCC(=O)CC[C@@H]1[C@@H](C/C=C\CCCC(=O)OC(C)C)[C@@H](O)C[C@H]1O`, which Potency is on record?
The Potency was active: 7.5 µM.

With `Cn1c(=O)c2c(nc(NC3CCCCC3)n2Cc2ccccc2)n(C)c1=O` as the molecule, how does the Potency read?
The Potency was inconclusive [inhibitor, single point].

For `CCCCn1cnc2c1c(=O)n(CC(=O)c1cc(C)n(C)c1C)c(=O)n2CC(C)C`, which activity change, negative = growth inhibition is on record?
The activity change, negative = growth inhibition was inconclusive: -30.3% [inhibitor].

With `O=C(NCc1ccccc1)C(c1c(F)cccc1Cl)N(C(=O)c1csnn1)C1CC1` (configuration not stated) as the molecule, how does the Potency read?
Its Potency is inconclusive [inhibitor, partial curve].

With `c1ccc2c(-c3cncc4ccccc34)cncc2c1` as the molecule, how does the Potency read?
Its Potency is inconclusive [inhibitor, single point].

Which Potency does the source give for `COc1ccccc1/C=C/C(=O)N1CCc2cc(OC)c(OC)cc2C1C` (configuration not stated) here?
The Potency was inconclusive [inhibitor, single point].

With `Cc1cc(-c2nnc(SCC(=O)Nc3nccs3)o2)no1` as the molecule, how does the “activity change, negative = growth inhibition” value read?
The value was inactive: 18.7%.

Which “activity change, negative = growth inhibition” value does the source give for `COC(=O)C1=C(C(=O)OC)[C@@H]2N(C)c3ccccc3[C@@]23C[C@@H](C(=O)OC)N(C(=O)c2cc(C)oc2C)C3=N1` here?
Its value is inactive: -5.21%.

With `COC(=O)[C@@H]1CCCN1S(=O)(=O)Cc1ccccc1` as the molecule, how does the “activity change, negative = growth inhibition” value read?
Its value is inactive: -6.01%.

For `O=C(/C=C/c1c(F)cccc1Cl)Nc1ccc(S(=O)(=O)Nc2ncccn2)cc1`, which “activity change, negative = growth inhibition” value is on record?
The value was inactive: -3.19%.

With `C/C(=N/O)c1no[n+]([O-])c1/C(C)=N\O` as the molecule, how does the “activity change, negative = growth inhibition” value read?
The value was inactive: 2.21%.

Which “activity change, negative = growth inhibition” value does the source give for `CCN(CC)CCCNC(=O)C(C)n1nc(C)c2sc3ccccc3c2c1=O` (configuration not stated) here?
Its value is inactive: -16.8%.

For `Cc1cc(C)cc(NC(=O)CSc2nc3nc(C)cc(C)c3c(=O)[nH]2)c1`, which “activity change, negative = growth inhibition” value is on record?
Its value is inactive: -2.45%.

With `Nc1nc2ccc(Cl)cc2cc1C(=O)NCCCN1CCOCC1` as the molecule, how does the “activity change, negative = growth inhibition” value read?
Its value is inactive: -14.1%.

For `Cc1cc(-c2ccccc2)oc(=O)c1NC(=O)c1ccccc1`, which Potency is on record?
The Potency was inconclusive [inhibitor, single point].

With `S=C(NCCCc1cnc[nH]1)NCCCN(Cc1ccc(Cl)cc1)c1cc(-c2ccccc2)ccn1` as the molecule, how does the Potency read?
Its Potency is inconclusive [inhibitor, single point].

With `C=CCSc1nc2c(c(=O)[nH]c(=O)n2C)n1CC` as the molecule, how does the Potency read?
Its Potency is inconclusive [inhibitor, single point].

Which Potency does the source give for `COc1cc(OC)c(NC(=S)NCc2ccc(F)cc2)cc1Cl` here?
The Potency was inconclusive [inhibitor, single point].

Which “activity change, negative = growth inhibition” value does the source give for `COc1cc(/C=C/C(=O)O)cc(S(=O)(=O)N(C)CCO)c1OC` here?
The value was inactive: -24.2%.
